Results on 7 molecules are retold here after paper PMC9377714, “Unconventional tonicity-regulated nuclear trafficking of NFAT5 mediated by KPNB1, XPOT and RUVBL2” (Journal of Cell Science, 2022).

Amino acid sequences for entries named in this document (tags omitted).
UniProt Q14974: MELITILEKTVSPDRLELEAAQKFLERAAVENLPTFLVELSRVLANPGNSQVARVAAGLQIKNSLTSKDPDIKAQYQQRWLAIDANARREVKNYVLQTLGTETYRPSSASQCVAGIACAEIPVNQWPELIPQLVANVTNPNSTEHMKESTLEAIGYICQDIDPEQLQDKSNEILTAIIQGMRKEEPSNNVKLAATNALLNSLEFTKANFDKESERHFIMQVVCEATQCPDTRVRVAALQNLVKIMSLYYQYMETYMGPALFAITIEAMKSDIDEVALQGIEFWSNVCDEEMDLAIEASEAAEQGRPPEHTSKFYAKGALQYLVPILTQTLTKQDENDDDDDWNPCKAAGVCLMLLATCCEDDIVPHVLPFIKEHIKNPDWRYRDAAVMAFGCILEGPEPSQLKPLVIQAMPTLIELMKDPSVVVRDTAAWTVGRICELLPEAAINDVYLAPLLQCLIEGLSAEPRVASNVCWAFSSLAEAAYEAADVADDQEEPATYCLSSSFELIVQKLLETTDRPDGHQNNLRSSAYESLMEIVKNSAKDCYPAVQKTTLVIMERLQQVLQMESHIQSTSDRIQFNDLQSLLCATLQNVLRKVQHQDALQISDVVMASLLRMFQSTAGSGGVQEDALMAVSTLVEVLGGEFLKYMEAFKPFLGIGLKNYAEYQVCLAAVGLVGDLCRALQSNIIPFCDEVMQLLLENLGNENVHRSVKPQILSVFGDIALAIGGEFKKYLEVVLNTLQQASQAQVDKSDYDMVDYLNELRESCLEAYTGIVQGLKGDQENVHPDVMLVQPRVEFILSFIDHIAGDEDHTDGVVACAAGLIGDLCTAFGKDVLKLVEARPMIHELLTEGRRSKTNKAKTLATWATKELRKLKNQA

The target of assay [1] is T1, FLAG–NFAT5_(132–581) (UniProt O94916).
T1 sequence: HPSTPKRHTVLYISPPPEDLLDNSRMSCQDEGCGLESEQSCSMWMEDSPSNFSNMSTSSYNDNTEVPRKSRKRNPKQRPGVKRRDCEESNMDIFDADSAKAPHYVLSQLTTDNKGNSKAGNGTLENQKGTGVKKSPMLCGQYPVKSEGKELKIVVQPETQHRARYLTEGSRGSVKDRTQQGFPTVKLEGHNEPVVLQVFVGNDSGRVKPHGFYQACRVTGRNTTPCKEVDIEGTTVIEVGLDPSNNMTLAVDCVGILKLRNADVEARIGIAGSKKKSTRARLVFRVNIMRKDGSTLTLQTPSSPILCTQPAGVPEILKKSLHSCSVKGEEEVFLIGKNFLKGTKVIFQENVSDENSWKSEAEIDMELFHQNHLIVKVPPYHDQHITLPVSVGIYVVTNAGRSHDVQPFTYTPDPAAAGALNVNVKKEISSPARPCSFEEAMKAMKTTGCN
Kind of assay: co-IP; anti-FLAG affinity resin or FLAG antibodies on extracts of HeLa cells expressing FLAG–NFAT5 constructs, western blot for endogenous proteins; lysis buffer 50 mM Tris-HCl pH 7.8, 100 mM NaCl, 1 mM EDTA, 1% Triton X-100; in Fig. 6C cells treated with hypotonic, isotonic or hypertonic medium. (A western blot detects proteins with antibodies after separation by electrophoresis.)

Assay [2] addresses karyopherin β1 (KPNB1), endogenous (human (endogenous in HeLa)) (UniProt Q14974). Nature of the assay: co-IP; immunoprecipitation with anti-KPNB1 antibodies from HeLa lysate, western blot with NFAT5 and KPNB1 antibodies; IgG-only control.
The target of assay [3] is Nuclear factor of activated T-cells 5 (NFAT5), endogenous (human (endogenous in HeLa)) (UniProt O94916). Nature of the assay: co-IP; immunoprecipitation with NFAT5 antibodies from HeLa cell extracts, western blot with the indicated antibodies; IgG control; in Fig. 6D cells treated with hypotonic, isotonic or hypertonic medium.
Assay [4] concerns the target T2, His–KPNB1 (UniProt Q14974 1-876).
T2 construct: KPNB1 (karyopherin β1, importin β1), full length, in a modified pET 30a vector; In the pull-down it was held on Ni-NTA by the His tag; also called full-length KPNB1; source: E. coli BL21 (DE3), purified (HisTrap HP)
Kind of assay: pull-down; His–KPNB1 immobilised on Ni-NTA agarose, GST fusion proteins added, 4°C overnight; washes with 20 mM sodium phosphate, 100 mM NaCl, 40 mM imidazole, 10% glycerol; SDS–PAGE and Coomassie Blue; both purified.

In assay [5] the target is T1, FLAG–NFAT5_(132–581). Kind of assay: co-IP; anti-FLAG affinity resin or FLAG antibodies on extracts of HeLa cells expressing FLAG–NFAT5 constructs, western blot for endogenous proteins; lysis buffer 50 mM Tris-HCl pH 7.8, 100 mM NaCl, 1 mM EDTA, 1% Triton X-100; in Fig. 6C cells treated with hypotonic, isotonic or hypertonic medium. The source holds these as a separate data set.

Read-outs that look alike come from different tables or passages of the source. These are yes or no findings as the source states them, for the method shown. For some of these results: Binding seen in cells or lysates may run through a third protein. Some results given as binding are weak or reduced against the parent protein; the word gives no strength. For some of these results: Tags and fused reporters may be left off the sequences shown.

On to “karyopherin β1 (KPNB1), endogenous (from UniProt Q14974 1-876)”, for which the binding result in assay [1] is reported as “binds”. “Nuclear factor of activated T-cells 5 (NFAT5), endogenous (from UniProt O94916 1-1531)”: the binding entry in assay [2] is “binds”. In the case of “inosine-5'-monophosphate dehydrogenase 2 (IMPDH2), endogenous (from UniProt P12268 1-514)”, the binding entry in assay [3] is reported as “binds”. Turning to SNMDIFDADSAKAPHYVLSQLTTDNKGNSKA (domain or fragment, UniProt O94916 220-250) [GST–NFAT5_(220–250)], the binding result in assay [4] is listed as “binds weakly”.

B1: exportin-T (XPOT), endogenous (protein, UniProt O43592 1-962)
chain: MDEQALLGLNPNADSDFRQRALAYFEQLKISPDAWQVCAEALAQRTYSDDHVKFFCFQVLEHQVKYKYSELTTVQQQLIRETLISWLQAQMLNPQPEKTFIRNKAAQVFALLFVTEYLTKWPKFFFDILSVVDLNPRGVDLYLRILMAIDSELVDRDVVHTSEEARRNTLIKDTMREQCIPNLVESWYQILQNYQFTNSEVTCQCLEVVGAYVSWIDLSLIANDRFINMLLGHMSIEVLREEACDCLFEVVNKGMDPVDKMKLVESLCQVLQSAGFFSIDQEEDVDFLARFSKLVNGMGQSLIVSWSKLIKNGDIKNAQEALQAIETKVALMLQLLIHEDDDISSNIIGFCYDYLHILKQLTVLSDQQKANVEAIMLAVMKKLTYDEEYNFENEGEDEAMFVEYRKQLKLLLDRLAQVSPELLLASVRRVFSSTLQNWQTTRFMEVEVAIRLLYMLAEALPVSHGAHFSGDVSKASALQDMMRTLVTSGVSSYQHTSVTLEFFETVVRYEKFFTVEPQHIPCVLMAFLDHRGLRHSSAKVRSRTAYLFSRFVKSLNKQMNPFIEDILNRIQDLLELSPPENGHQSLLSSDDQLFIYETAGVLIVNSEYPAERKQALMRNLLTPLMEKFKILLEKLMLAQDEERQASLADCLNHAVGFASRTSKAFSNKQTVKQCGCSEVYLDCLQTFLPALSCPLQKDILRSGVRTFLHRMIICLEEEVLPFIPSASEHMLKDCEAKDLQEFIPLINQITAKFKIQVSPFLQQMFMPLLHAIFEVLLRPAEENDQSAALEKQMLRRSYFAFLQTVTGSGMSEVIANQGAENVERVLVTVIQGAVEYPDPIAQKTCFIILSKLVELWGGKDGPVGFADFVYKHIVPACFLAPLKQTFDLADAQTVLALSECAVTLKTIHLKRGPECVQYLQQEYLPSLQVAPEIIQEFCQALQQPDAKVFKNYLKVFFQRAKP
As for B1, in assay [5], the binding entry is recorded as “no binding”.

B2: adenine nucleotide translocator 3 (SLC25A6), endogenous (protein, UniProt P12236 1-298)
chain: MTEQAISFAKDFLAGGIAAAISKTAVAPIERVKLLLQVQHASKQIAADKQYKGIVDCIVRIPKEQGVLSFWRGNLANVIRYFPTQALNFAFKDKYKQIFLGGVDKHTQFWRYFAGNLASGGAAGATSLCFVYPLDFARTRLAADVGKSGTEREFRGLGDCLVKITKSDGIRGLYQGFSVSVQGIIIYRAAYFGVYDTAKGMLPDPKNTHIVVSWMIAQTVTAVAGVVSYPFDTVRRRMMMQSGRKGADIMYTGTVDCWRKIFRDEGGKAFFKGAWSNVLRGMGGAFVLVLYDELKKVI
With B2, the binding result in assay [3] is listed as “no binding”.

B3: GST–NFAT5_(171–250(AA)) (domain or fragment, UniProt O94916 171-250)
chain: SCSMWMEDSPSNFSNMSTSSYNDNTEVPRKSAARNPKQRPGVKRRDCEESNMDIFDADSAKAPHYVLSQLTTDNKGNSKA
On to B3, for which the binding result in assay [4] was “binds weakly”.
